Results on 24 compounds are retold here after ChEMBL document CHEMBL4888484, “Replenishing the malaria drug discovery pipeline: Screening and hit evaluation of the MMV Hit Generation Library 1 (HGL1) against asexual blood stage Plasmodium falciparum ,using a nano luciferase reporter read-out” (2022).

The whole screen tested about 150,000 compounds, of which about 540 (0.36%) showed an effect of 50% or more. Some of the results follow.

In this experiment the test system is Plasmodium falciparum. Put plainly: Primary screen in NF54 nanoGlo assay, in single point, at 2uM, 72h; a lower Z score goes with more inhibition. The experiment is classed as functional, Erythrocyte. The settings on record: timepoint 72 hour.
As to `CCCOc1ccc(CN[C@@H](C)CC)cc1Cl`, the % Inhibition – broadly, the drop in the measured response relative to a control, in per cent – is -21% and the Z score is listed as 3.16.
For `CC(=O)N1CCC(NS(=O)(=O)c2ccc3ccccc3c2)CC1`, the “% Inhibition” value was -6% and the Z score was determined as 1.15.
As for `Cc1cnccc1CN(C)c1nc(-c2cccnc2)nc2c1c(C)nn2C`, the “% Inhibition” value is -8% and the Z score is listed as 0.75.
On the same counts, the results for `CCN(CC)c1onc(-c2ccccc2)c1CN(Cc1ccccc1)C(=O)c1cccc(Br)c1` are -10% and 1.5.
On the same counts, the results for `CCCNC(=O)[C@H](C)OC(=O)c1cc(OC)no1` are -16% and 2.39.
On to `CC(C)C1CCN(C(=O)Nc2ccns2)CC1`, for which the “% Inhibition” value was -5% and the Z score was 0.94.
Take `Cc1nn(C)c2c1N(CC1=CCCCC1)CCS2(=O)=O`: the “% Inhibition” value is given as 1% and the Z score is on record as -0.13.
On the same counts, the results for `CCn1nccc1C(=O)N1CC[C@H]2C(=O)N(Cc3ccccc3)CCN2CC1` are -14% and 1.88.
For `O=C(c1cnccn1)N1CCc2sccc2[C@H]1c1ccccc1`, the “% Inhibition” value is reported as -4% and the Z score was 0.49.
Take `CC(C)c1cncnc1N[C@H]1CCOC[C@@H]1OCC1CC1`: the “% Inhibition” value is given as -5% and the Z score is given as 0.83.
Turning to `O=C(c1cc2n(n1)CCN(Cc1nc3c(s1)CCCC3)C2)N1CCCC1`, the “% Inhibition” value is on record as -2% and the Z score is recorded as 0.23.
For `CC(C)CN1CCC[C@H]1CNC1CCCCC1S(C)(=O)=O` (stereo partly drawn) the same measures were -15% and 1.9.
Regarding `COC(=O)Cc1nc(C(C)C)nn1-c1ccc2c(c1)CCC2`, the “% Inhibition” value was -10% and the Z score was 1.2.
Take `CC(=O)c1c(F)cccc1N1CCN2CCCC[C@H]2C1`: the “% Inhibition” value is 34% and the Z score is -3.88.
Take `CC(C)(C)C1CCC(O)(CNC(=O)c2cscn2)CC1` (stereo not drawn): the “% Inhibition” value is recorded as -7% and the Z score is listed as 0.71.
As for `Cc1ccc(CN[C@@H]2c3ccccc3CC23CCOCC3)nc1`, the “% Inhibition” value is -6% and the Z score is recorded as 0.78.
With `O=C(NCc1ccncc1)[C@H]1CCCN(c2ncnc3c2oc2ccccc23)C1`, the “% Inhibition” value is -13% and the Z score is listed as 1.55.
Take `CC(CO)C1CCN(C(=O)[C@@H]2CCCC[C@@H]2N2CCCC2=O)CC1` (stereo partly drawn): the “% Inhibition” value is given as -7% and the Z score is on record as 1.14.
For `Cc1cc2sc(NC(=O)NC(C)(C)CO)nc2s1` the same measures were -11% and 1.41.
For `Cc1ccccc1S(=O)(=O)Nc1ccc(N2CCNCC2)c(C(=O)NC[C@H]2CCCO2)c1` the same measures were 3% and -0.37.
In the case of `C[C@@H]1CN(C(=O)c2c[nH]nc2C(C)(C)C)CCN(C2CC2)C1`, the “% Inhibition” value came to 3% and the Z score was -0.54.
As to `CCS(=O)(=O)C[C@H](C)N(C)C(=O)c1cc(C)no1`, the “% Inhibition” value was -1% and the Z score was 0.17.
For `O=S(=O)(c1cccc(F)c1)N1CCC(OC2CCN(Cc3ccccc3)CC2)CC1` the same measures were 3% and -0.33.
Consider `Fc1ccc(N2Cc3ccccc3C2)nc1`, for which the “% Inhibition” value stood at 17% and the Z score is listed as -2.1.
